Assay results reported in PMC4336329 (PLoS ONE, 2015).
In all, about 310,000 compounds went through this assay and about 14,000 (4.5%) showed an effect of 50% or more. Effects have a minus sign here. This is one part of the list.

molecular target: human ether-à-go-go-related gene (hERG) potassium channel (human, UniProt Q12809); test: primary screen, population patch clamp on CHO cells stably expressing hERG
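Also: peak tail current of the secondary pulse compared with the same well before compound.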

Sequence of human ether-à-go-go-related gene (hERG) potassium channel (Q12809 whole entry, looked up): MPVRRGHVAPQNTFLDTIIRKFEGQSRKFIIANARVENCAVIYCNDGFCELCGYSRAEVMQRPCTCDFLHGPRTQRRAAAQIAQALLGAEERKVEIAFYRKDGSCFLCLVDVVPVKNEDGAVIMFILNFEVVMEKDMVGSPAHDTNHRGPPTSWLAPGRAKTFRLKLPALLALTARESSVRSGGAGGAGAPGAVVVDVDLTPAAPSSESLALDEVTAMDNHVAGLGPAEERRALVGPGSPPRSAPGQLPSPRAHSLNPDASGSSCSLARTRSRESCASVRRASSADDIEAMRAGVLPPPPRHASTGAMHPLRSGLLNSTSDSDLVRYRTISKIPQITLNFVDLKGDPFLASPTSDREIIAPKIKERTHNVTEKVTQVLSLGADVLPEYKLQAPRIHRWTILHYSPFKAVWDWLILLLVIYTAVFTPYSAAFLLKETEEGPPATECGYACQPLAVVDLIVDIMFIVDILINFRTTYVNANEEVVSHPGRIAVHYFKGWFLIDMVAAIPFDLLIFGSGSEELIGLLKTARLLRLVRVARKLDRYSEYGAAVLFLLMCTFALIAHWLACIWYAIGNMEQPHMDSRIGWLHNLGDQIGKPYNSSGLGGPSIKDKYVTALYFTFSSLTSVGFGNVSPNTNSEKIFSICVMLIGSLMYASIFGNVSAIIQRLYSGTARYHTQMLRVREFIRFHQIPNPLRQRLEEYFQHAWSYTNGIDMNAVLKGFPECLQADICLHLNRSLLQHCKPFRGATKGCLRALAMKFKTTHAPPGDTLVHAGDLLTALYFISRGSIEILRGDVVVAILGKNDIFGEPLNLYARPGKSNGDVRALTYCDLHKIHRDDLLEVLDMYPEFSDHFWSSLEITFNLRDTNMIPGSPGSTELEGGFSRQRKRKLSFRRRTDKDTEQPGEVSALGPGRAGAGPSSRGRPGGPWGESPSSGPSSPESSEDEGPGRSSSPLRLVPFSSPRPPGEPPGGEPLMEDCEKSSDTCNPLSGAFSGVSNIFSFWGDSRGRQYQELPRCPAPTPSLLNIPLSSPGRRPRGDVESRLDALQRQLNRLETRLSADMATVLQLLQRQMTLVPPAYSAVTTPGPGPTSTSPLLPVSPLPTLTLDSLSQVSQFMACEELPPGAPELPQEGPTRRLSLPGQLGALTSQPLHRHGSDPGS

SMILES	hERG current change (%, negative = inhibition) at 10uM
COc1ccc(NC(=O)CCN2CCN(S(=O)(=O)c3ccc(F)cc3)CC2)cc1	-6.32%
O=C(Cn1c(NCCO)nc2ccccc21)c1ccccc1	15.7%
Cc1cccc(C(C)C)c1NC(=O)Cc1ccc(S(=O)(=O)N2CCOCC2)s1	-15.6%
CC(=O)c1ccc(N2C(=NC(=O)C(C)C)SC3CS(=O)(=O)CC32)cc1 (stereo not drawn)	-0.23%
CCN(CC)P(=S)(c1c(C)nc2ccccn12)c1c(C)nc2ccccn12	-9.33%
Clc1cccc(Cl)c1Cn1c(-c2cccnc2Cl)nc2ccccc21	-25.2%
Cc1ccc(CSCC(=O)Nc2ccccc2C(=O)O)cc1	27.1%
COc1ccccc1N1CCN(C(=S)NC(=O)/C=C/c2ccccc2)CC1	2.65%
CCCC1Cc2c(sc(N)c2C#N)CO1 (stereo not drawn)	2.5%
CCn1c(NN=O)nc2ccccc21	15.6%
CC(Sc1nnc(NC(=O)c2cc3ccccc3oc2=O)s1)c1ccccc1 (stereo not drawn)	13.3%
COc1cc(N)c(Cl)cc1C(=O)OCC(=O)N1CCCC1	18.8%
COCc1cc(C)nc2oc(C(=O)c3ccccc3)c(N)c12	-2.3%
CC(=O)N1N=C(c2ccco2)CC1c1ccco1 (stereo not drawn)	17.9%
CC(C)(C)OC(=O)N1CCC2(CC1)C(C#N)=C(N)OC1=C2C(=O)CCC1	-1.79%
COc1ccc(NC(=O)C2=C(C)NC(=S)NC2c2ccc(O)c(OC)c2)cc1 (stereo not drawn)	18.9%
Cc1onc(-c2ccccc2)c1-c1nc2cc(Cl)ccc2c(=O)o1	10.9%
Cc1cccc(OCC(=O)O/N=C(\N)c2ccncc2)c1	8.79%
O=C(CS(=O)(=O)c1c[nH]c2ccccc12)N1CCCc2ccccc21	5.72%
COc1ccc(NC(=O)CNC(=O)c2cccs2)cc1Cl	6.73%
CCCc1cc(=O)oc2c(CNc3ccc(OCC)cc3)c(O)ccc12.Cl	4.56%
COCCn1c(N)c(N(Cc2ccccc2)C(=O)C2CCCCC2)c(=O)[nH]c1=O	9.26%
CN(C)c1ccc(C2CC(=O)C=C(Nc3ccccc3N)C2)cc1 (stereo not drawn)	5.99%

SMILES	hERG current change (%, negative = inhibition) at 10uM
CSc1nc(C)c(Oc2ccccc2)c(=O)n1C	5.82%
Cc1nn(C)c(Cl)c1/C=C/C(=O)O	14.9%
CC(Oc1ccc(F)cc1)C(=O)N1CCN(c2ncccn2)CC1 (stereo not drawn)	-6.69%
Cc1ccc(/C=C/S(=O)(=O)NCC(=O)OCC(=O)N2CC(=O)Nc3ccccc32)cc1	-28.1%
Cc1ccc(C(=O)N/C(=C/c2ccco2)C(=O)NCc2ccco2)cc1	-12%
CC(C)(C)c1cc(OC(=O)c2ccncc2)ccc1O	9.1%
CCC(C(=O)O)n1c2ccccc2c2cn[nH]c(=O)c21 (stereo not drawn)	15.5%
Br.N=C1c2ccccc2CN1NC(=O)c1ccc(Br)cc1	-6.17%
O=C(CSc1nc2ccccc2o1)NC(=O)NCc1ccccc1	8.99%
COC(=O)C1=C(c2ccc(F)cc2F)C[C@@H]2CC[C@H]1N2C(=O)NCCOc1ccccc1Cl	-8.64%
CC12CN3CCN(C1)CC(C)(C3)C2=NO	8.25%
Cl.Nc1cc(Cl)ccc1N1CCCCCC1	3.2%
C(=N\Nc1nc2ccccc2[nH]1)/c1c[nH]c2ccccc12	-11.9%
Cc1cccc(CC(=O)NCC2CCCCC2)c1	-0.319%
O=C1CC2(CCN(S(=O)(=O)c3ccccc3)CC2)Oc2ccccc21	-84.6%
Cc1nc(N)sc1C(=O)N1N=N1	28.9%
CC(Sc1nncs1)C(=O)NCc1ccc2c(c1)OCO2 (stereo not drawn)	8.23%
CCOc1ccc(C)cc1S(=O)(=O)N1CCCCC1	-1.81%
Cc1cc(F)ccc1S(=O)(=O)N1CCC2(CC1)OCCN2S(=O)(=O)c1cccs1	-18.3%
CCC1CCCCN1S(=O)(=O)c1ccc([N+](=O)[O-])cc1 (stereo not drawn)	-6.42%
CS(=O)(=O)N1CCc2cc(S(=O)(=O)NCCNS(=O)(=O)c3ccc4c(c3)CCN4S(C)(=O)=O)ccc21	7.96%
CC(C)c1csc(CN2CCC(N3CCC(C(=O)N4CCOCC4)CC3)CC2)n1	-40.8%
COc1ccc(CCNC(=O)c2cc(-c3ccc(Cl)c(Cl)c3)oc2C)cc1	-2.58%

SMILES	hERG current change (%, negative = inhibition) at 10uM
CC(=O)Nc1ccc(NS(=O)(=O)c2ccc(Cl)c(C(=O)O)c2)cc1	0.754%
CO/N=C(\c1nonc1N)N1CCN(c2ccc(Cl)cc2[N+](=O)[O-])CC1	8.71%
CCCCn1c(N)c(N(CCOC)C(=O)c2ccc3c(c2)C(=O)N(c2ccccc2C)C3=O)c(=O)[nH]c1=O	4.8%
CS(=O)(=O)N(CC(=O)NCC1CCCO1)Cc1ccc(Cl)cc1 (stereo not drawn)	10.2%
CC(=O)Nc1ccc(NC(=O)C2CC(=O)N(c3ccccc3Cl)C2)cc1 (stereo not drawn)	16%
O=c1cc(CSc2nnnn2-c2ccccc2)nc2nc[nH]n12	17.9%
Fc1cccc(Cl)c1CNCc1cccnc1	7.68%
COc1ccc(C(C)=O)cc1CN1C(=O)NC2(CCCCCCC2)C1=O	14.8%
O=C(Cn1c(=O)oc2ccccc21)NCCc1ccccc1Cl	9.25%
CCCCOP(=O)(c1ccc(N(C)C)cc1)C(O)c1ccc(OC)c(OC)c1 (stereo not drawn)	2.28%
O=C(COC(=O)c1ccc(Cl)c(S(=O)(=O)N2CCCCC2)c1)NCC1CCCO1 (stereo not drawn)	-14.1%
COc1ccc(-c2cc(-c3ccccc3)nc(SCC(=O)Nc3ncc(C)s3)c2C#N)cc1	-5.9%
Cc1cc(NC(=O)CCC(=O)N(c2ccc(C)c(F)c2)C(C(=O)NC2CCCC2)c2ccco2)no1 (stereo not drawn)	1.71%
CC(C)n1c(SC2CCOC2=O)nc2ccccc21 (stereo not drawn)	0.0978%
CC(=O)c1ccc(NC(=O)c2cnn3ccccc23)cc1	-3.97%
Cc1cccc(C)c1NC(=O)C(NC(=O)CN1C(=O)c2ccccc2C1=O)c1ccccc1 (stereo not drawn)	5.04%
O=C(Nc1cccc(O)c1)c1ccc(NC(=O)C2CCCO2)cc1 (stereo not drawn)	25.4%
Cn1cc(Br)cc2nc(C(F)(F)F)nc1-2	-0.815%
CC(NC(=O)C1CCN(C(=O)[C@@H]2Cc3ccccc3CN2C(=O)OC(C)(C)C)CC1)c1ccccc1 (stereo partly drawn)	14%
CC(=O)Nc1ccc(NC(=O)C(C)OC(=O)CNS(=O)(=O)c2cccc(Cl)c2)cc1 (stereo not drawn)	18.7%
O=S(CC(O)COCc1ccc(Cl)cc1)c1ccccn1 (stereo not drawn)	26.8%
CC(C)NC(=O)c1ccc(Sc2ccccc2)c([N+](=O)[O-])c1	8.54%
CCCNC(=O)c1oc2ccc3c(c2c1C)C(=O)CC(C)(C)O3	-3.97%

SMILES	hERG current change (%, negative = inhibition) at 10uM
COc1cccc(C2NC(CC(C)C)(C(=O)O)C3C(=O)N(Cc4ccccc4)C(=O)C23)c1O (stereo not drawn)	10.2%
CCN1CCN(Cc2cc(=O)oc3ccc(Cl)cc23)CC1	-15%
CC(Sc1nc2c(c(=O)[nH]1)CCCC2)C(=O)Nc1ccc(Br)cn1 (stereo not drawn)	-8.59%
N#Cc1c(N)nc2c(c1-c1ccccc1)CCCC2	-1.63%
COC(=O)c1ccc(CO/N=C/c2ccc(OC)cc2OC)cc1	14.4%
CC(c1ccccc1)C1OCC(C[N+]2(C)CCCCC2)O1.[I-] (stereo not drawn)	20%
CCOC(=O)N1CCN(C(=O)c2ccc3nc(-c4ccccc4)c(-c4ccccc4)nc3c2)CC1	-54.6%
CCOc1cc(C(=O)OCC(=O)Nc2cccc(C)c2)ccc1OCC(=O)N1CCOCC1	10.1%
COC(=O)C1C(=O)NCC1c1ccccc1 (stereo not drawn)	25.3%
Cn1nc(C(=O)N2CCc3ccccc3C2)c2ccccc2c1=O	6.13%
O=[N+]([O-])c1cc(CS(=O)(=O)Oc2ccc(Cl)cc2)c(O)c([N+](=O)[O-])c1	15.1%
CCOC(=O)/C=c1\s/c(=C\c2ccc(C#N)cc2)c(=O)n1CC(=O)NCc1ccco1	3.55%
O=C(COC(=O)c1cc(=O)[nH]c2ccccc12)c1ccc(Br)cc1	4.54%
COc1cccc(C(C(=O)NCc2ccccc2)N(C(=O)c2csnn2)C2CC2)c1 (stereo not drawn)	-4.31%
COc1ccccc1-c1ccc(SCc2ccccc2F)nn1	-7%
O=C(CSc1nnnn1-c1ccc(C(=O)O)cc1)NC1CCCCC1	1.48%
O=C1CC(c2ccc(F)cc2)CC(O)=C1C1NCCc2ccccc21 (stereo not drawn)	8.49%
Cc1noc(C)c1CSc1ncnc2sc3c(c12)CCCCC3	11%
CC(C)COP(=O)(OCC(C)C)C(O)c1ccccc1F (stereo not drawn)	-1.27%
COc1cccc(/C=N/NC(=O)CCCc2ccc(OC)c(C)c2)c1	-3.05%
O=C(NCCN1CCCC1)c1ccc2c(c1)N(Cc1ccccc1)C(=O)c1ccccc1S2(=O)=O	4.59%
